Assay results: the supplement of paper PMC4604168 (melanoma cell lines)
This is one part of the list. Single values are uncertain, as repeats are few or missing.

Assays:
Experiment in all cases: cell count relative to DMSO control; melanoma cells; higher = more viable cells
Conditions in all cases: library dose: standard library concentration; 72 h
SkMel28 = tested on: SkMel28
SkMel2 = tested on: SkMel2
SkMel30 = tested on: SkMel30
SkMel5 = tested on: SkMel5
UACC257 = tested on: UACC257
UACC62 = tested on: UACC62
WM115 = tested on: WM115
WM1716 = tested on: WM1716
WM1745 = tested on: WM1745
WM3526 = tested on: WM3526
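Further: cells treated in 1,536-well plates, then fixed and DAPI-stained, with nuclei counted from automated high-throughput microscope images.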

SMILES	cell count (SkMel28)	cell count (SkMel2)	cell count (SkMel30)	cell count (SkMel5)	cell count (UACC257)	cell count (UACC62)	cell count (WM115)	cell count (WM1716)	cell count (WM1745)	cell count (WM3526)
Cn1cc(C2=C(c3cn(C4CCN(Cc5ccccn5)CC4)c4ccccc34)C(=O)NC2=O)c2ccccc21 [Enzastaurin] + C#Cc1cccc(Nc2ncnc3cc(OCCOC)c(OCCOC)cc23)c1 [erlotinib] (first compound 4 µM, partner dose 4 µM)	62.9%	57.2%	67.7%	63.6%	95.6%	72.5%	89.6%	82.2%	19.1%	74.1%
C[As](C)SC[C@H](NC(=O)CC[C@H](N)C(=O)O)C(=O)NCC(=O)O [Darinaparsin] + COc1cc2c(Oc3ccc4[nH]c(C)cc4c3F)ncnc2cc1OCCCN1CCCC1 [cediranib] (first compound 2 µM, partner dose 2 µM)	173%	109%	105%	74%	74.3%	135%	102%	84.9%	91.2%	81.2%
C[As](C)SC[C@H](NC(=O)CC[C@H](N)C(=O)O)C(=O)NCC(=O)O [Darinaparsin] + O=C(O)C(=O)Nc1sc2c(c1C(=O)O)CCNC2 [TCS401] (first compound 2 µM, partner dose 8.33333 µM)	66.1%	88.5%	95.1%	54.2%	74.4%	105%	71.8%	75.1%	72.9%	63.3%
C[C@]12O[C@H](C[C@]1(O)CO)n1c3ccccc3c3c4c(c5c6ccccc6n2c5c31)CNC4=O [Lestaurtinib] + CCCCCCCCc1ccc(CCC(N)(CO)CO)cc1 [fingolimod] (first compound 0.02 µM, partner dose 10 µM)	4.24%	0.405%	7.16%	51.3%	79.1%	17.7%	10.3%	28.3%	2.24%	26.6%
Cn1cc(C2=C(c3cn(C4CCN(Cc5ccccn5)CC4)c4ccccc34)C(=O)NC2=O)c2ccccc21 [Enzastaurin] + C[C@]12O[C@H](C[C@]1(O)CO)n1c3ccccc3c3c4c(c5c6ccccc6n2c5c31)CNC4=O [Lestaurtinib] (first compound 4 µM, partner dose 0.02 µM)	90.1%	94.7%	64.1%	56.6%	87.1%	61.8%	77.3%	68.9%	45.7%	60%
Cn1cc(C2=C(c3cn(C4CCN(Cc5ccccn5)CC4)c4ccccc34)C(=O)NC2=O)c2ccccc21 [Enzastaurin] + CC1(C)NC(=O)N(c2ccc([N+](=O)[O-])c(C(F)(F)F)c2)C1=O [nilutamide] (first compound 4 µM, partner dose 5 µM)	81.8%	58.9%	119%	84.3%	88.1%	101%	126%	77%	50.7%	69.1%
N.N.[Cl][Pt][Cl] [cisplatin] + CNC(=O)c1cc(Oc2ccc(NC(=O)Nc3ccc(Cl)c(C(F)(F)F)c3)cc2)ccn1 [sorafenib] (first compound 8 µM, partner dose 2 µM)	74.1%	82.5%	74.9%	71%	58.1%	83.8%	101%	100%	65%	68.9%
C[As](C)SC[C@H](NC(=O)CC[C@H](N)C(=O)O)C(=O)NCC(=O)O [Darinaparsin] + CN(NC(=O)CC(=O)NN(C)C(=S)c1ccccc1)C(=S)c1ccccc1 [STA4783] (first compound 2 µM, partner dose 0.03 µM)	12.9%	69.8%	79%	40.7%	71.5%	58.4%	26.1%	63.6%	42.4%	85.1%
C[C@]12O[C@H](C[C@]1(O)CO)n1c3ccccc3c3c4c(c5c6ccccc6n2c5c31)CNC4=O [Lestaurtinib] + N.N.[Cl][Pt][Cl] [cisplatin] (first compound 0.02 µM, partner dose 8 µM)	47.9%	79.1%	60.2%	55.4%	77.4%	68.9%	83%	84.6%	72.1%	58%
C[C@]12O[C@H](C[C@]1(O)CO)n1c3ccccc3c3c4c(c5c6ccccc6n2c5c31)CNC4=O [Lestaurtinib] + C=C(c1ccc(C(=O)O)cc1)c1cc2c(cc1C)C(C)(C)CCC2(C)C [Bexarotene] (first compound 0.02 µM, partner dose 10 µM)	54.4%	80%	88.9%	76.1%	95.7%	83.1%	94.8%	99.5%	81%	68.9%
C[C@]12O[C@H](C[C@]1(O)CO)n1c3ccccc3c3c4c(c5c6ccccc6n2c5c31)CNC4=O [Lestaurtinib] + Clc1ccc(Nc2nnc(Cc3ccncc3)c3ccccc23)cc1 [vatalanib] (first compound 0.02 µM, partner dose 10 µM)	58.1%	72.3%	70.5%	56.3%	62.9%	61.5%	60.2%	98.7%	71.7%	80.6%
N.N.[Cl][Pt][Cl] [cisplatin] + C=CCNC1=C2C[C@@H](C)C[C@H](OC)[C@H](O)[C@@H](C)/C=C(\C)[C@H](OC(N)=O)[C@@H](OC)/C=C\C=C(/C)C(=O)NC(=CC1=O)C2=O [Tanespimycin] (first compound 8 µM, partner dose 0.01 µM)	63.5%	98.7%	111%	71.9%	83.1%	56.9%	27.5%	75.9%	66.8%	79.4%
Cn1cc(C2=C(c3cn(C4CCN(Cc5ccccn5)CC4)c4ccccc34)C(=O)NC2=O)c2ccccc21 [Enzastaurin] + C[C@]1(c2nc3c(C(N)=O)cccc3[nH]2)CCCN1 [Veliparib] (first compound 4 µM, partner dose 7 µM)	74.1%	91.2%	106%	65.7%	72.6%	67.7%	82.3%	76.8%	45.9%	94.5%
C[C@]12O[C@H](C[C@]1(O)CO)n1c3ccccc3c3c4c(c5c6ccccc6n2c5c31)CNC4=O [Lestaurtinib] + Cn1c(Nc2ccc(C(F)(F)F)cc2)nc2cc(Oc3ccnc(-c4ncc(C(F)(F)F)[nH]4)c3)ccc21 [CHIR265] (first compound 0.02 µM, partner dose 0.4 µM)	48.9%	64%	68.6%	42.6%	95.1%	53.6%	37.1%	71.6%	68.7%	46%
C[C@]12O[C@H](C[C@]1(O)CO)n1c3ccccc3c3c4c(c5c6ccccc6n2c5c31)CNC4=O [Lestaurtinib] + Nc1cccc2c1CN(C1CCC(=O)NC1=O)C2=O [lenalidomide] (first compound 0.02 µM, partner dose 5 µM)	67.1%	86.5%	99.5%	59.3%	94.7%	98.4%	73.5%	117%	104%	63.9%
N.N.[Cl][Pt][Cl] [cisplatin] + COCC[n+]1c2c(n(Cc3cnccn3)c1C)C(=O)c1ccccc1C2=O [YM155] (first compound 8 µM, partner dose 0.002 µM)	46.9%	40.2%	58.7%	41.5%	22.3%	57.7%	82.6%	72.6%	102%	44%

SMILES	cell count (SkMel28)	cell count (SkMel2)	cell count (SkMel30)	cell count (SkMel5)	cell count (UACC257)	cell count (UACC62)	cell count (WM115)	cell count (WM1716)	cell count (WM1745)	cell count (WM3526)
Cn1cc(C2=C(c3cn(C4CCN(Cc5ccccn5)CC4)c4ccccc34)C(=O)NC2=O)c2ccccc21 [Enzastaurin] + CCCS(=O)(=O)Nc1ccc(F)c(C(=O)c2c[nH]c3ncc(Cl)cc23)c1F [PLX4720] (first compound 4 µM, partner dose 0.4 µM)	53%	108%	88.7%	65.4%	116%	55.6%	77.3%	68.6%	90.5%	61.6%
C[As](C)SC[C@H](NC(=O)CC[C@H](N)C(=O)O)C(=O)NCC(=O)O [Darinaparsin] + C[C@@H]1CCN(C(=O)CC#N)C[C@@H]1N(C)c1ncnc2[nH]ccc12 [CP690550] (first compound 2 µM, partner dose 5 µM)	79.4%	86%	116%	64.1%	87%	93.2%	65.7%	65.3%	101%	70.9%
C[As](C)SC[C@H](NC(=O)CC[C@H](N)C(=O)O)C(=O)NCC(=O)O [Darinaparsin] + COc1cc2ncnc(Nc3ccc(Oc4ccccc4)cc3)c2cc1OC [SrcI1] (first compound 2 µM, partner dose 10 µM)	55.6%	96.8%	82.9%	43.7%	68.7%	81.9%	52.7%	59.3%	76.9%	51.2%
C[C@]12O[C@H](C[C@]1(O)CO)n1c3ccccc3c3c4c(c5c6ccccc6n2c5c31)CNC4=O [Lestaurtinib] + CN(C)S(=O)(=O)c1ccc2c(c1)/C(=C/c1cc3c([nH]1)CCCC3)C(=O)N2 [SU6656] (first compound 0.02 µM, partner dose 2 µM)	41.2%	85.9%	71.9%	55.3%	86.5%	74.9%	41.5%	73.5%	64.1%	54.4%
N.N.[Cl][Pt][Cl] [cisplatin] + CO[C@H]1C[C@@H]2CC[C@@H](C)[C@@](O)(O2)C(=O)C(=O)N2CCCC[C@H]2C(=O)O[C@H]([C@H](C)C[C@@H]2CC[C@@H](OCCO)[C@H](OC)C2)CC(=O)[C@H](C)/C=C(\C)[C@@H](O)[C@@H](OC)C(=O)[C@H](C)C[C@H](C)/C=C/C=C/C=C/1C [everolimus] (first compound 8 µM, partner dose 0.1 µM)	33.3%	62.8%	72.4%	51.4%	83.9%	69.9%	75.8%	84.1%	118%	65.7%
C[C@]12O[C@H](C[C@]1(O)CO)n1c3ccccc3c3c4c(c5c6ccccc6n2c5c31)CNC4=O [Lestaurtinib] + COc1cc2c(Oc3ccc4[nH]c(C)cc4c3F)ncnc2cc1OCCCN1CCCC1 [cediranib] (first compound 0.02 µM, partner dose 2 µM)	73.2%	89.9%	91.3%	63.5%	69.6%	86.2%	71.5%	84.6%	107%	72.6%
C[C@]12O[C@H](C[C@]1(O)CO)n1c3ccccc3c3c4c(c5c6ccccc6n2c5c31)CNC4=O [Lestaurtinib] + CC(C)C[C@H](NC(=O)[C@H](Cc1ccccc1)NC(=O)c1cnccn1)B(O)O [Bortezomib] (first compound 0.02 µM, partner dose 0.005 µM)	31.3%	46.1%	33.5%	33.3%	77.7%	56%	29.8%	21.2%	25%	27.1%
N.N.[Cl][Pt][Cl] [cisplatin] + Nc1ccn([C@@H]2O[C@H](CO)[C@@H](O)C2(F)F)c(=O)n1 [gemcitabine] (first compound 8 µM, partner dose 0.002 µM)	120%	112%	127%	90.7%	85.1%	91.4%	92.5%	80.3%	44.3%	107%
C[C@]12O[C@H](C[C@]1(O)CO)n1c3ccccc3c3c4c(c5c6ccccc6n2c5c31)CNC4=O [Lestaurtinib] + Cc1nc(Nc2ncc(C(=O)Nc3c(C)cccc3Cl)s2)cc(N2CCN(CCO)CC2)n1 [dasatanib] (first compound 0.02 µM, partner dose 0.02 µM)	55.8%	97.3%	79.5%	57.1%	78%	86.3%	68.5%	66.9%	36.7%	73.1%
N.N.[Cl][Pt][Cl] [cisplatin] + NC(=O)Nc1cc(-c2cccc(F)c2)sc1C(=O)N[C@H]1CCCNC1 [AZD7762] (first compound 8 µM, partner dose 0.1 µM)	36%	80.1%	79.8%	64.1%	87.5%	61.6%	49%	57.8%	63.3%	49.2%
C[C@]12O[C@H](C[C@]1(O)CO)n1c3ccccc3c3c4c(c5c6ccccc6n2c5c31)CNC4=O [Lestaurtinib] + CN(c1ncccc1CNc1nc(Nc2ccc3c(c2)CC(=O)N3)ncc1C(F)(F)F)S(C)(=O)=O [PF562271] (first compound 0.02 µM, partner dose 0.4 µM)	72.4%	73.1%	66.6%	58.9%	93.2%	80%	52.8%	81.4%	67.4%	71.9%
C[C@]12O[C@H](C[C@]1(O)CO)n1c3ccccc3c3c4c(c5c6ccccc6n2c5c31)CNC4=O [Lestaurtinib] + COc1cc(Nc2ncc(F)c(Nc3ccc4c(n3)NC(=O)C(C)(C)O4)n2)cc(OC)c1OC [Tamatinib] (first compound 0.02 µM, partner dose 2 µM)	99.1%	87.3%	126%	51.8%	86.1%	100%	85.2%	87.9%	47.1%	84.7%
Cn1cc(C2=C(c3cn(C4CCN(Cc5ccccn5)CC4)c4ccccc34)C(=O)NC2=O)c2ccccc21 [Enzastaurin] + OCc1c[nH]c2ccccc12 [Indole-3-carbinol] (first compound 4 µM, partner dose 4 µM)	99.3%	139%	103%	91.6%	105%	94.4%	114%	82.2%	96.2%	112%
C[C@]12O[C@H](C[C@]1(O)CO)n1c3ccccc3c3c4c(c5c6ccccc6n2c5c31)CNC4=O [Lestaurtinib] + Cc1ccc(NC(=O)c2cccc(N(C)C)c2)cc1NC(=O)c1ccc(O)cc1 [ZM336372] (first compound 0.02 µM, partner dose 10 µM)	59.9%	59.7%	78.4%	60.4%	69.2%	82.5%	72.3%	117%	79.8%	63.3%
Cn1cc(C2=C(c3cn(C4CCN(Cc5ccccn5)CC4)c4ccccc34)C(=O)NC2=O)c2ccccc21 [Enzastaurin] + O=C(Nc1cccc(Cl)c1)Nc1ncc(CCNc2ncnc3ccsc23)s1 [SNS314] (first compound 4 µM, partner dose 0.004 µM)	34.3%	68.5%	85.2%	65%	76.1%	92%	46.6%	61%	68.6%	53.5%
Cn1cc(C2=C(c3cn(C4CCN(Cc5ccccn5)CC4)c4ccccc34)C(=O)NC2=O)c2ccccc21 [Enzastaurin] + O=C(CCCCCCC(=O)Nc1ccccc1)NO [vorinostat] (first compound 4 µM, partner dose 0.4 µM)	52.1%	75%	95.4%	64%	78.8%	53.1%	64.5%	82.4%	73.7%	80.3%
